Measured values reported in the supplement of paper PMC10126150.
Sequences with one replicate were seen in a single cluster, so their values are uncertain.

What follows are sequences tested on ATP (assay: switch fluorescence ratio, 500 uM ATP over buffer (Cy3 cluster intensity, sum of 5 cycles each) (fold (ratio)); higher = stronger signal-on switching upon ATP binding; sequences stand for … in TCGTCGGCAGCGTCAGATGTGTATAAGAGACAGTTTTTTTTTTTTTTTTTTTTTTTTT…TC). Conditions: aptamer strand: ATP DNA aptamer (quencher-CACCTGGGGGAGTATTGCGGAGGAAGG + anchor), 100 nM annealed; ATP concentration: 500 uM; one replicate.
Summary of the method: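 Cy3-labelled switching-strand clusters on a modified Illumina MiSeq flow-cell were annealed to 100 nM quencher-labelled ATP aptamer, imaged in selection buffer, then imaged after 15 min with 500 uM ATP at 22 °C. Five buffer/ATP cycles ran, with NaOH stripping and re-annealing between them. The fluorescence ratio is summed target-cycle over summed buffer-cycle Cy3 intensity per cluster, averaged per switch-domain sequence. Clusters outside 100-1000 RFU were excluded.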
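Also: ATP exposure 15 min at 22 °C before imaging.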

Sequence | switch fluorescence ratio
ATTGTGGCTC | 0.99
ATTGTTCTCG | 1.02
ATTTAAACAT | 1.09
ATTTAAGCCG | 1.07
ATTTACGGTA | 1.35
ATTTAGAATT | 0.997
ATTTAGGGT | 1.01
ATTTAGTTGC | 1.06
ATTTATAAT | 1
ATTTATGCGA | 1
ATTTCAAATC | 1.01
ATTTCACCGG | 1.02
ATTTCACGAC | 1.04
ATTTCATGGG | 1.01
ATTTCGCCGT | 1.04
ATTTCGGGC | 0.98
ATTTCGGTA | 0.973
ATTTCTAAGT | 0.972
ATTTCTGCGT | 0.994
ATTTCTTTCG | 1.02
ATTTGACCAG | 1.01
ATTTGAGC | 1.04
ATTTGAGTCG | 0.962
ATTTGATTAC | 1
ATTTGCTCTG | 0.99
ATTTGGCGTT | 1

Sequence | switch fluorescence ratio
ATTTGGTACG | 0.983
ATTTGGTTTA | 1.04
ATTTGTATCA | 0.992
ATTTGTGCGT | 1.01
ATTTTAGAC | 1.04
ATTTTAGATT | 1.02
ATTTTAGGTG | 1.2
ATTTTATACG | 1.06
ATTTTATGAT | 1.01
ATTTTATGTA | 1.03
ATTTTATGTC | 1.01
ATTTTCAGTG | 0.994
ATTTTCCGCC | 1.28
ATTTTCGCTA | 1.05
ATTTTCTATT | 0.956
ATTTTGACCT | 1.3
ATTTTGACTA | 1.01
ATTTTGGTGC | 1.01
ATTTTTAAG | 1.05
ATTTTTGCA | 1.01
ATTTTTTTC | 1.22
CAAAAAACG | 0.996
CAAAAACCAA | 1.11
CAAAAAGAAG | 1.01
CAAAAAGCAG | 1.02
CAAAAGTACT | 1.04

Sequence | switch fluorescence ratio
CAAACAGTT | 0.982
CAAACATGGA | 0.988
CAAACATTTA | 0.981
CAAACCGCAG | 2.08
CAAACGTAAA | 1.23
CAAACTGAAA | 0.998
CAAAGACAGA | 1.01
CAAAGACGAA | 1.03
CAAAGAGTTG | 1.02
CAAAGCCCGG | 0.961
CAAAGGAGTG | 1.03
CAAAGGGATT | 0.966
CAAAGTGTTT | 0.957
CAAATAAGCG | 0.98
CAAATACATC | 0.989
CAAATCAAAG | 0.978
CAAATCAACT | 1.03
CAAATCGGAT | 0.962
CAAATCTTAT | 1.01
CAAATGTATG | 1.09
CAAATGTGAC | 1.03
CAAATTGTGT | 0.966
CAACAAGGGG | 1.02
CAACACAGAT | 1.03
CAACACATG | 1.02
CAACACCGAT | 0.994

Sequence | switch fluorescence ratio
CAACACGTAA | 1.32
CAACAGAGAT | 1.02
CAACAGGCGG | 1.02
CAACAGTCGC | 1.03
CAACATCCTA | 1.02
CAACATTGG | 1
CAACCTTGAA | 0.977
CAACGAATGA | 0.982
CAACGAGCCG | 0.987
CAACGAGCG | 1.01
CAACGCGAGT | 1.27
CAACGCGTA | 1.08
CAACGGCAG | 1.03
CAACGGCCGG | 0.995
CAACGGGACC | 1.27
CAACGGGGAT | 0.999
CAACGTTTAG | 1.02
CAACTAGTG | 1.05
CAACTGCCTA | 1.01
CAACTGTAGG | 1.01
CAACTTAGAG | 1.02
CAACTTAGGG | 0.979
CAACTTGCCG | 1.08
CAAGAAGCCA | 1.01
CAAGAAGTTA | 1.02
CAAGAATTAT | 0.956

Sequence | switch fluorescence ratio
CAAGAGGAA | 0.979
CAAGAGGATA | 0.966
CAAGAGTACA | 1.06
CAAGATCCCG | 0.991
CAAGCCGATT | 1.02
CAAGCTGACG | 1.03
CAAGCTTTG | 1.01
CAAGGAAGTA | 0.996
CAAGGAATTA | 0.987
CAAGGAGTAT | 0.962
CAAGGATTCG | 1.01
CAAGGGCTTT | 1.03
CAAGGGGTAT | 0.983
CAAGGTGTTT | 1.01
CAAGTAACTT | 1.06
CAAGTAATGA | 1.02
CAAGTAGATA | 0.993
CAAGTCAGCA | 1.05
CAAGTGCGCA | 0.984
CAAGTTATTT | 0.945
CAATAAACAG | 1.01
CAATAAATGC | 2.03
CAATAATAAT | 1.02
CAATAATCAA | 1
CAATATACC | 1.06
CAATATGAT | 1.03

Sequence | switch fluorescence ratio
CAATCACCTT | 1.16
CAATCCAGGT | 1.34
CAATCTTAGG | 1.02
CAATGAAAAG | 1.01
CAATGCCGCT | 1
CAATGCCTCA | 1.03
CAATGGATAT | 0.99
CAATGGCCAA | 1.01
CAATGGGTAA | 0.97
CAATGTCTTT | 0.963
CAATGTGTCA | 0.99
CAATTACTAA | 0.984
CAATTAGATA | 1.01
CAATTATAGT | 0.997
CAATTGATAT | 0.992
CAATTGGGCG | 1.01
CAATTGGGT | 1.01
CAATTGGTCA | 1.03
CAATTTCACA | 1.04
CACAAACGGA | 1.32
CACAAAGGAA | 0.999
CACAAAGTGT | 1.01
CACAAGCGAC | 1.51
CACAATAGTT | 1.03
CACAATTTTC | 1.06
CACACCCAGA | 1.23

Sequence | switch fluorescence ratio
CACACCCTGG | 1.27
CACACGGAA | 1.23
CACACTTC | 1.05
CACAGATTCC | 1.03
CACAGCCGCC | 1.35
CACAGCTCTT | 2.72
CACAGGCTCG | 1
CACAGTTGAG | 1.02
CACATCAAAA | 1.01
CACATCACCG | 1.44
CACATGGCGT | 0.998
CACCAAAGCC | 1.11
CACCACGTAG | 1.04
CACCACTGTA | 1.24
CACCCACCAT | 1.36
CACCCCGCTA | 3.46
CACCCCGGAA | 2.08
CACCCGATGA | 1.02
CACCCGCCTT | 1.03
CACCCGTGCA | 1.11
CACCCTTAA | 1.04
CACCCTTTAT | 0.968
CACCGACGGA | 1.1
CACCGCTGGG | 1.08
CACCTAAGCG | 1.03
CACCTAGGCA | 1.03

Sequence | switch fluorescence ratio
CACCTGTTCG | 0.975
CACGAAGCTG | 1.13
CACGAGGGA | 1.01
CACGAGTTTC | 0.975
CACGATGCGA | 1.75
CACGCGCTTT | 1.01
CACGGAGTGT | 0.998
CACGGCCTGT | 0.997
CACGGCCTTG | 1.01
CACGGCTACT | 1.39
CACGGGAGA | 1.02
CACGGGAGGT | 1.06
CACGGGCAAC | 1.18
CACGGGCCTT | 0.929
CACGGGGGCA | 1.01
CACGGGTTAT | 1.02
CACGGGTTTC | 1.01
CACGGTCATT | 1.03
CACGGTGCT | 1.08
